The source gives no read counts; variants with many changes may rest on few reads.
B1: LINE1-mini (parent)
chain: GGCAGAGCUCAACACAGCGUGGCAAAGUGGCUGUGGCUAGACUGCC

Variants of: B1
Assay: self-cleavage, relative activity (ratio to wild type); higher = more cleavage; in vitro, sequencing; the parent is a self-cleaving ribozyme

Question: For GGCAGAGCUCAACACAGCGCGGCAACGUGGCCGUGGCUAGACUGCC [U20C A26C U32C], which self-cleavage is on record?
Answer: 0.11

Question: With GGCAGAGUUCAACAAAGCGUGGCAAAGUGGCUGCGGCUAGACUGCC [C8U C15A U34C] as the variant, how does the self-cleavage read?
Answer: 0.03

Question: With GGGAGAGCUCAACACAGCGGGGCAGAGUGGCUGUGGCUAGACUGCC [C3G U20G A25G] as the variant, how does the self-cleavage read?
Answer: 0.13

Question: With GGCAGAGCUCAACACAGUGUGGCAAAGUGGCUCUGGCUAGACUUCC [C18U G33C G44U] as the variant, how does the self-cleavage read?
Answer: 0.02

Question: Which self-cleavage does the source give for AGCAGAGCUCAACACAGCAUGGCAAAGUGGCUGUGGCCAGACUGCC [G1A G19A U38C] here?
Answer: 2.83

Question: With GGCAGAGCUCUACGCAGCGUGGGAAAGUGGCUGUGGCUAGACUGCC [A11U A14G C23G] as the variant, how does the self-cleavage read?
Answer: 0.05

Question: For GGCAGAGCUCACCACAGCGUGGCAAAGUGGCUGUGGCUAAGCUGCC [A12C G40A A41G], which self-cleavage is on record?
Answer: 0.04

Question: Which self-cleavage does the source give for GGCAGAGCUCAACACAGCGAGGCAAAGAGGCUGUGGCUAGACCGCC [U20A U28A U43C] here?
Answer: 0.02

Question: For GACAGAGCUCAACUCAGCGAGGCAAAGUGGCUGUGGCUAGACAGCC [G2A A14U U20A U43A], which self-cleavage is on record?
Answer: 0.13

Question: For GGCAGAGCUCAGCACCGCGUGGAAAAAUGGCUGUGGCUAGACUGCC [A12G A16C C23A G27A], which self-cleavage is on record?
Answer: 0.03

Question: For AGCAGAGCUGAACACAGCGUGCCAAAGUGGCUGUGGCUAGAGUGCG [G1A C10G G22C C42G C46G], which self-cleavage is on record?
Answer: 0.01

Question: Which self-cleavage does the source give for GGCAGAGCUGAACAAAGCGUGACAAAGUGGCUGUCGGUAGACUGCC [C10G C15A G22A G35C C37G] here?
Answer: 0.02

Question: With GGCAGACCUCAAUACAGCGUGGCAAGGUGGCUGUGGCUAGACUGCC [G7C C13U A26G] as the variant, how does the self-cleavage read?
Answer: 0

Question: For UCCAGAGCUCAACACAGCCUGGCAAAGUGGCUGUGGCUAGACAGCC [G1U G2C G19C U43A], which self-cleavage is on record?
Answer: 0.01

Question: For GGCAGAGCUCAACACAGCGAGGAAAAGUGGCUGUUGUUAGACUGCC [U20A C23A G35U C37U], which self-cleavage is on record?
Answer: 0.03

Question: For AGCAGAGCGCAACACAGCGUGGCAAAGUUGCUGUGGCUAGACUGCC [G1A U9G G29U], which self-cleavage is on record?
Answer: 0.54

Question: Which self-cleavage does the source give for GGCUGAGCUCAACACACGGUGGCAAAGUGGCUGUGGCUAGACCGCC [A4U G17C C18G U43C] here?
Answer: 0.01

Question: For GGCAGUGCUCAACACAGCGUGGCAUAGUGGCUGUCGCUAGACUGCC [A6U A25U G35C], which self-cleavage is on record?
Answer: 0.04

Question: For GGCAGCGCUCAACACAGCGUCGCAAAGUGGCUGUGGCUAGCCUGCC [A6C G21C A41C], which self-cleavage is on record?
Answer: 0.06

Question: With GACAGAGAUCAACACAGCGUAGCAAAGUGGCUGUGGCUAGACUGAC [G2A C8A G21A C45A] as the variant, how does the self-cleavage read?
Answer: 0.42

Question: With UGCAGGGCUCAACACAGCGUGGCAAAGUGGCUGUGGGUAGACCGCC [G1U A6G C37G U43C] as the variant, how does the self-cleavage read?
Answer: 0.01

Question: For GGCAGAGCCCAACACAGCGUGGCAAAGUGGCUGUGGCUAGGCUGCG [U9C A41G C46G], which self-cleavage is on record?
Answer: 0.01

Question: With GCCAGAGCUCAACACAGCCUGGCAAAGUGUCUGUGGCUAGACUGCC [G2C G19C G30U] as the variant, how does the self-cleavage read?
Answer: 0.06

Question: Which self-cleavage does the source give for GGCAGAGCUCAACACAGCUUGGCAAAGUGGCUGUGGCUAGUCAGCC [G19U A41U U43A] here?
Answer: 0.02

Question: For GGCAGGGCUCAACACAGCGUGGAAAACUGGCUGUGGCUAGACUGCC [A6G C23A G27C], which self-cleavage is on record?
Answer: 0.03

Question: Which self-cleavage does the source give for GGCAGAGCUCAAGACAACGUGGCAAAGUUGCUGUGGCUAGACUGCC [C13G G17A G29U] here?
Answer: 0.07

Question: Which self-cleavage does the source give for GGCCAAGCUCAACACAGCGUGGCAAAAUGGCUGUGGUUAGACUGCC [A4C G5A G27A C37U] here?
Answer: 0.04

Question: For GGUAGAGCUCAACACAGCGGGGCAAAGUGGCUGUGGCUAGACUGCU [C3U U20G C46U], which self-cleavage is on record?
Answer: 0.28

Question: For GGGAAAGCUCAACACAGCGUGGCAAAGUGGCUGAGGCUAGACUGCC [C3G G5A U34A], which self-cleavage is on record?
Answer: 0.06

Question: With GGCAGAGCUCAACCCAGCGUGGCAAAGUGGCUGUGGCUAGACAUUC [A14C U43A G44U C45U] as the variant, how does the self-cleavage read?
Answer: 0.07

Question: For GGGAGAGCUCAACACAGCGUGGAAAAAUGGCUGUGGCUAGACUGCC [C3G C23A G27A], which self-cleavage is on record?
Answer: 0.95

Question: With GGCAAAGCUCAACAAUUCGUGGCAAAGUGGCUGCGGCUAGACUGCC [G5A C15A A16U G17U U34C] as the variant, how does the self-cleavage read?
Answer: 0.13

Question: For GGCAGAGCUCAACACAGCGUGGUAAAGUGGCGGUGGCUAGGCUGCC [C23U U32G A41G], which self-cleavage is on record?
Answer: 0.07

Question: With GGCAGAGCUCAACACAGCGUGGCAAUUUGGCUGUGGCUAGACUACC [A26U G27U G44A] as the variant, how does the self-cleavage read?
Answer: 1.83

Question: For AGCAGAGCUAAACACAGCGUGGCAAAGUGGCUGUGGCUAGUCUGAC [G1A C10A A41U C45A], which self-cleavage is on record?
Answer: 0.01

Question: For GGCAGAGCUCAACAAACCGUGGCAAAGUGGCUGUGGCUAGACAGCC [C15A G17C U43A], which self-cleavage is on record?
Answer: 0.05

Question: With GACAGAGCACAACACAUCGUGGCAAAGUGGCUGUUGCAACACUGCC [G2A U9A G17U G35U U38A G40C] as the variant, how does the self-cleavage read?
Answer: 0.01

Question: Which self-cleavage does the source give for GGCAGAGGUGAGCACAGCGUGGCAAACUGGCUGUGGCUAGACUGCC [C8G C10G A12G G27C] here?
Answer: 0.01

Question: For GGCACAGACCAACACAGCGUGGCAAAGUGGCUGUGGCUAGACUGCC [G5C C8A U9C], which self-cleavage is on record?
Answer: 0.93

Question: For GGCAGAGCUCAACACAGCGUGGCAAAUUGGCUGUGGCUAGACCCCC [G27U U43C G44C], which self-cleavage is on record?
Answer: 0.16

Question: With AGCGGAGCUCAACUCAGCAUGGCAAAGUGGCUGUGGCAAGACUGCC [G1A A4G A14U G19A U38A] as the variant, how does the self-cleavage read?
Answer: 0.1

Question: For GGAAGAUCUCAACACAGCGUGGCAAAGUGGCUCUGGCUAGACUGCC [C3A G7U G33C], which self-cleavage is on record?
Answer: 0.04

Question: Which self-cleavage does the source give for UCCAGAGCUCACCACAGCGUGGCAAAGUGGCUUUGGCUAGACUGCC [G1U G2C A12C G33U] here?
Answer: 0.02

Question: For GGCAAGGCUCAACACAGGGUGGCAAAGUGGCUGUAGCUAGACUGCC [G5A A6G C18G G35A], which self-cleavage is on record?
Answer: 0.1

Question: For GGCAGAGCUCAACACUGCGUGGCAAAGAGGGUGUGGCUAGACUGCC [A16U U28A C31G], which self-cleavage is on record?
Answer: 0.01

Question: For GGCAGAUCUCAACAUAGCGUGGCCAAGUGGCUGUGGCUAGACUGCC [G7U C15U A24C], which self-cleavage is on record?
Answer: 0.11

Question: With GGCAGAGCUCAACACAGGGUGGCAAAGUGGCUGUGGCUAGCCGUCC [C18G A41C U43G G44U] as the variant, how does the self-cleavage read?
Answer: 0

Question: Which self-cleavage does the source give for GGCAGAGCUAAACACAGCGUACCAAAGUAGCUGUGGCUAGACUGCC [C10A G21A G22C G29A] here?
Answer: 0.04

Question: For GGUAGAGCUCAACACAGCGUGGGAAAGUGGGUGUGGCUAUACUGCC [C3U C23G C31G G40U], which self-cleavage is on record?
Answer: 0.21

Question: Which self-cleavage does the source give for CGAAGAGCUAAACACAGCGUGGCAUAGUCUCUUUGGCUAGCCUGCC [G1C C3A C10A A25U G29C G30U G33U A41C] here?
Answer: 0.02

Question: Which self-cleavage does the source give for GCCAGAGCUCAACACAGCGUGGCAAACAGGCUGUGGCUAGACUGCC [G2C G27C U28A] here?
Answer: 0.09

Question: For GGCAGAGCUCAACACAUCGUGGAAAAGUGGCUGUGGCUAGUCUGCC [G17U C23A A41U], which self-cleavage is on record?
Answer: 0.09

Question: With GGCAGAGCUCAACACAGCAUGGCAAAUUGGCUGUGGCUAGACCGCC [G19A G27U U43C] as the variant, how does the self-cleavage read?
Answer: 0.1

Question: Which self-cleavage does the source give for GACAGAGCUCAACACAACGUGGCAAAGUGUCUGUAGCUAGACUGCC [G2A G17A G30U G35A] here?
Answer: 0.09

Question: Which self-cleavage does the source give for GUCAGAGCUCAACACAGAGUGGUAAAGUGGCUGUGACUAGACUGCU [G2U C18A C23U G36A C46U] here?
Answer: 0.02

Question: Which self-cleavage does the source give for CGCAUAGCUCAACACAGCUUGGCAAAGUGGCUGUGGCUAGACUGCU [G1C G5U G19U C46U] here?
Answer: 0.04
